The other results are listed elsewhere or left out.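 The calls were made as follows: active = permutation test q below 0.05 after Benjamini-Hochberg correction; inactive = q of 0.05 or more.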
Test system: U2OS
Experiment: mean average precision of replicate retrieval against DMSO controls (Cell Painting phenotypic activity) (fraction (0-1)); higher = stronger, more reproducible morphological phenotype distinct from DMSO; extreme values may be limits of the assay
Conditions: 48 h; 5 µM
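Also: cosine similarity of well-level aggregated Cell Painting profiles ranks each compound's replicate wells against DMSO wells, four replicate plates, significance from 100,000 rank shuffles.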

Row | Compound | mean average precision
1 | Oc1ccc(-c2nc(-c3ccc(F)cc3)c(-c3ccncc3)[nH]2)cc1 | active: 0.889
2 | CC1(C)C(=O)NC2=C1C(=O)C(=O)c1ccccc12 | active: 1
3 | CCCCCCCC/C=C\CCCCCCCC(=O)OC(CO)CO | active: 0.333
4 | CC(C)c1ccc2oc3nc(N)c(C(=O)O)cc3c(=O)c2c1 | inactive: 0.223
5 | Cc1oncc1C(=O)Nc1ccc(C(F)(F)F)cc1 | inactive: 0.195
6 | CC(O)C(CO)NC(=O)C1CSSCC(NC(=O)C(N)Cc2ccccc2)C(=O)NC(Cc2ccccc2)C(=O)NC(Cc2c[nH]c3ccccc23)C(=O)NC(CCCCN)C(=O)NC(C(C)O)C(=O)N1 (stereo not drawn) | inactive: 0.132
7 | Cc1cc(C)cc(NC(=O)Cc2ccc(OC(C)(C)C(=O)O)cc2)c1 | inactive: 0.0703
8 | CC(C)COCC(CN(Cc1ccccc1)c1ccccc1)N1CCCC1 (stereo not drawn) | inactive: 0.295
9 | CC1(C)O[C@@H]2C[C@H]3[C@@H]4CCC5=CC(=O)C=C[C@]5(C)[C@H]4[C@@H](O)C[C@]3(C)[C@]2(C(=O)CO)O1 | active: 0.979
10 | COc1ccc(C2Sc3ccccc3N(CCN(C)C)C(=O)C2OC(C)=O)cc1 (stereo not drawn) | inactive: 0.0731
11 | Cc1cc(-c2ccc3c(c2)CC[C@H]3N2CC3(CCN(C(=O)Cc4cn5cc(C)sc5n4)CC3)C2)ncn1 | active: 0.524
12 | COC(=O)N(C)c1c(N)nc(-c2nn(Cc3ccccc3F)c3ncccc23)nc1N | inactive: 0.237
13 | Cc1cc(N2CCOCC2)cc2[nH]c(-c3c(NC[C@@H](O)c4cccc(Cl)c4)cc[nH]c3=O)nc12 | active: 1
